Assay results taken from PMC4336329 (PLoS ONE, 2015).
The campaign covered roughly 310,000 compounds. About 14,000 (4.5%) showed an effect of 50% or more. The effect is printed as a negative number. Some of the results follow.

biological target: human ether-à-go-go-related gene (hERG) potassium channel (human, UniProt Q12809); experiment: primary screen, population patch clamp on CHO cells stably expressing hERG
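Further: peak tail current of the secondary pulse compared with the same well before compound.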

human ether-à-go-go-related gene (hERG) potassium channel, sequence (Q12809 whole entry, looked up): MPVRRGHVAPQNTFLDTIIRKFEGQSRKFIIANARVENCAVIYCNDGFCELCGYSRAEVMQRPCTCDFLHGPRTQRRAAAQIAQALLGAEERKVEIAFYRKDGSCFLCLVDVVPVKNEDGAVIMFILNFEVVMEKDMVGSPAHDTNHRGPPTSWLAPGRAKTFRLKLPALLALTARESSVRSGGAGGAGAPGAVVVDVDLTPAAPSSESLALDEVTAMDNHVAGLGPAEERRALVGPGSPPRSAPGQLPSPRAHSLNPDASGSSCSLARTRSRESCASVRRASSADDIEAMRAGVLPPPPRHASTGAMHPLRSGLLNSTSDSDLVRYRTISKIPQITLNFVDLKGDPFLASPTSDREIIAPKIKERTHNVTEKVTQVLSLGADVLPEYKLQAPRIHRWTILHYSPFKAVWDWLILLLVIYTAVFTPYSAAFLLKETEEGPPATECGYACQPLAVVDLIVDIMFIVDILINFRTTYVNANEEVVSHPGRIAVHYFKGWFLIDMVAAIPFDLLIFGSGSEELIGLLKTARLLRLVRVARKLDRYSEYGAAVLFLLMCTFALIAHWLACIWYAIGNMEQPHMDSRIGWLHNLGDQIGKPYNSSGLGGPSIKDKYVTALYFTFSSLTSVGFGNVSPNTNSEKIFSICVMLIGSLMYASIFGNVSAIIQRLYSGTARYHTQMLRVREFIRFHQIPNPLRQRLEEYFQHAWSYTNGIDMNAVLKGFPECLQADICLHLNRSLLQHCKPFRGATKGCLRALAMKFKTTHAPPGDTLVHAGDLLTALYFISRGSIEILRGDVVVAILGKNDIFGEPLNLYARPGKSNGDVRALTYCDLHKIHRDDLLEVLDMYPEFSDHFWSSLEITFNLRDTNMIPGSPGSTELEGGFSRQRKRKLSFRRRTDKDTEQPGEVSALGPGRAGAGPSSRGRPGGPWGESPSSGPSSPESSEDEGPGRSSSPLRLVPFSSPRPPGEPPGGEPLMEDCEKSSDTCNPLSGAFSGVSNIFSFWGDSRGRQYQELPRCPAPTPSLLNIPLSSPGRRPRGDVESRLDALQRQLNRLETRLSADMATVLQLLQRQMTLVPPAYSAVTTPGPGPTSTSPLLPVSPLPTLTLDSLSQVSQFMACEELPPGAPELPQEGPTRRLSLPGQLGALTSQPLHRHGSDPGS

SMILES | hERG current change (%, negative = inhibition) at 10uM [%]
O=C(CCSc1ccccc1)Nc1nnc(-c2cccs2)o1 | 17.1
CC(C)OC(=O)C1Cc2ccccc2CN1S(=O)(=O)c1cccs1 (stereo not shown) | -6.37
CCc1ccc(C(C)NC(=O)c2cccs2)cc1 (stereo not shown) | 1.18
O=C(NC1CC1)C1CC(=O)N(c2ccccc2)C1 (stereo not shown) | 13.2
COCCn1c(SCC(=O)Nc2ccc(S(=O)(=O)N(C)C)cc2)nc2ccccc21 | -45.5
CSCCC(NC(=O)c1ccc([N+](=O)[O-])cc1Cl)C(=O)OCC(=O)NCCCc1ccccc1 (stereo not shown) | -57.8
CC(C)[C@H](NC(=O)[C@@H]1CSC2c3ccccc3C(=O)N21)C(=O)NC1CCCCC1 (stereo partly shown) | 2.91
COc1ccccc1/C=C1\SC(=O)N(CCC(=O)N2CCCCC2CCO)C1=O (stereo not shown) | -2.53
CCOC(=O)C(=O)N(Nc1ccc(C)cc1)c1ccc(C)cc1 | -16.5
COc1cc2c(cc1NC(=S)Nc1cccc(C(F)(F)F)c1)oc1ccccc12 | 15.8
CCc1nonc1NC(=O)c1oc2ccc(C)cc2c1C | 22.9
COc1ccccc1C(=O)NC(=O)COC(=O)C1CC1 | -9.84
CCNC(=S)N=Nc1c(O)[nH]c2ccc(C(C)C)cc12 | 2.79
COc1cccc(NC(=S)N(CCC(C)C)C(C)c2ccncc2)c1 (stereo not shown) | -12.8
COc1cc(C)nc(SCC(N)=O)n1 | 7.26
Cc1nonc1NC(=O)CSc1nc2c(C)cccc2cc1C#N | 4.66
COc1cccc(C2=NC(C)(C)NC(c3ccccc3O)C2)c1 (stereo not shown) | 2.64
CC1CCCCN1C(=O)COC(=O)c1n[nH]c2ccccc12 (stereo not shown) | -4.91
CCS(=O)(=O)C1=NSC2=NC(=O)/C(=C\c3ccc(OS(=O)(=O)c4ccccc4)c(OC)c3)C(=N)N21 | 14.5
Cn1c(Cc2csc(N)n2)nnc1SCC(=O)NC1CCCCC1 | -4.67
CN(C)C(=O)c1nc2ccc(Cl)cn2c1CNCc1ccccc1OC(F)(F)F | -2.88
Nc1ccc2nn(-c3ccc(F)cc3)nc2c1 | 15.6
Clc1ccccc1-c1csc(Nc2cccnc2)n1 | -3.14

SMILES | hERG current change (%, negative = inhibition) at 10uM [%]
Cc1ccc(Nc2cnn(C34CC5CC(CC(CC(=O)O)(C5)C3)C4)c(=O)c2Cl)cc1C | 8.31
COc1ccc(Cc2nnc(SCC(=O)Nc3ccc(C)c(Cl)c3)[nH]c2=O)cc1 | -1.35
O=C(NCCCN=C1NS(=O)(=O)c2ccccc21)c1ccc(Cl)cc1 | 8.24
C/C(Cn1cnc([N+](=O)[O-])n1)=N\NC(=O)c1ccccc1F | 16.4
O=C(O)C1OC(C(=O)O)C2C1C(F)(F)C2(F)F (stereo not shown) | 14.3
CCCCN(CC)C(=O)CSc1nc2ccccc2c(=O)n1CC1COc2ccccc2O1 (stereo not shown) | -37.6
CS(=O)(=O)N1CC(C(=O)O)Oc2ccc(CC(=O)O)cc21 (stereo not shown) | 22
S=C(NCCSCc1ccc(Cl)cc1)Nc1ccccc1 | 1.83
Cn1cnnc1SCC(=O)Nc1ccccc1C(=O)NC1CC1 | -2.68
C=CCNC(=S)NNC(=O)c1ccc(OCC)cc1 | 2.31
COc1cccc(CN2CC(C(=O)NCc3cccc(N4CCCC4)c3)CCC2=O)c1 (stereo not shown) | -5.08
CCC12CN(S(=O)(=O)c3ccc(C)cc3)CC(CC)(CN(S(=O)(=O)c3ccc(C)cc3)C1)C2=O | 2.03
COc1ccc(C(=O)Nc2sc(C(=O)N(C)C)c(C)c2C#N)cc1[N+](=O)[O-] | 8.47
COc1ccc(NC(C)=O)cc1S(=O)(=O)N1CCN(Cc2cccs2)CC1 | -3.53
O=C(N/N=C/c1c(Cl)[nH]c2ccccc12)c1ccc2c(c1)OCCO2 | -15.9
CC(=O)N(CCN1CCOCC1)Cc1cc2cc3c(cc2nc1Cl)OCO3 | 17.8
Cc1ccc(Cl)cc1NC(=S)N(C)N | -8.24
Cn1c(/C=C/c2ccc(Cl)cc2Cl)c([N+](=O)[O-])c(=O)n(C)c1=O | 16.7
CC(=O)c1ccc(C(=O)Nc2nnc(-c3ccc(Cl)cc3)o2)cc1 | 4.1
S=C(Nc1ccccc1)Nc1ccc(Br)cn1 | 12.3
CC(=O)c1ccc(NC(=O)CCNS(=O)(=O)c2ccccc2F)cc1 | 11.9
CCOC(=O)C1=C(C)NC(=O)NC1c1ccc(Cl)cc1Cl (stereo not shown) | -14.7
CCCNC(=O)N1[C@H]2CC[C@@H]1C(C(=O)OC)=C(c1ccc(F)cc1OCc1ccccc1)C2 | -23.3

SMILES | hERG current change (%, negative = inhibition) at 10uM [%]
COc1ccc(N2CCN(C(=O)CCC(=O)N3CC(C)Oc4ccccc43)CC2)cc1 (stereo not shown) | -46.2
COc1cccc(/C=N/n2c(C)nc3ccccc32)c1OC | 6.97
CCOC(=O)Nc1ccc(NS(=O)(=O)c2ccc(C)cc2)cc1 | -3.87
CCCN(CCC)C(=O)C(CCC(=O)[O-])NC(=O)c1ccccc1.[Na+] (stereo not shown) | 4.04
NS(=O)(=O)c1cccc(NC(=O)Cc2ccc(Cl)c(Cl)c2)c1 | 6.09
Cc1ccc(Cn2c(CN(C)Cc3ccccc3)nc3c2c(=O)n(C)c(=O)n3C)cc1 | -21.5
CN(Cc1ccccc1)C(=O)c1ccc([N+](=O)[O-])o1 | 1.49
O=C(CN1CCN(c2ccc(F)cc2)CC1)NC(=O)NCc1ccco1 | 17
Cc1ccc(/C=N/n2c(-c3cccs3)n[nH]c2=S)cc1 | 10.3
Br.CC(=O)Nc1ccc(-c2csc(N/N=C\c3ccncc3)n2)cc1 | 4.43
COc1cccc(N2CCN(CC(=O)c3c(C)[nH]c4ccccc34)CC2)c1 | -27.9
C=CCOC(=O)C1=C(C)NC(=O)NC1c1cc(Cl)cc(Cl)c1OC (stereo not shown) | 2.16
CN(C)c1ccc(S(=O)(=O)NCC(=O)OCC(=O)c2ccc[nH]2)cc1[N+](=O)[O-] | -11.7
CC(=O)Nc1ccccc1NC(=O)CN(C)S(=O)(=O)c1ccc(C)cc1 | -16.5
CC(C)(C)SCCNC(=O)c1ccc(Cl)c(S(=O)(=O)N2CCOCC2)c1 | -6.74
O=C(NCc1ccccc1Cl)c1cnccc1C(F)(F)F | 1.46
O=[N+]([O-])c1ccc(OCCCCN2CCCCC2)cc1 | -69.4
Cc1ccc(NC2(C(F)(F)F)N=C(c3ccccc3)NC2=O)nc1 (stereo not shown) | 18.4
Cc1cccn2cc(COc3cccc([N+](=O)[O-])c3)nc12 | 9.46
O=C(CCc1ccncc1)N1CCCC(Nc2ccc(F)c(F)c2)C1 (stereo not shown) | -56
O=C(COc1cccc(NC(=O)c2ccco2)c1)c1ccc(F)cc1 | -34.4
CCN(CC)C(=O)Cn1cc(C(=O)C(=O)N2CCCc3ccccc32)c2ccccc21 | -2.47
COc1ccc(OC)c(S(=O)(=O)N(C)CC(=O)N2CCCCC2)c1 | -5.42

SMILES | hERG current change (%, negative = inhibition) at 10uM [%]
Cc1ccc(S(=O)(=O)CC(C)(O)C(=O)Nc2cccc(C(F)(F)F)c2)cc1 (stereo not shown) | 1.06
Cc1ccc(OCC(=O)NNC(=O)C2CCCO2)c(C)c1 (stereo not shown) | 2.64
COc1cccc(Cn2cc(N)cn2)c1 | 21.4
Cn1c(=O)[nH]c2c(Cl)nccc21 | 33.9
O=C1CCC([N+](=O)[O-])C(c2cccc(Br)c2)N1 (stereo not shown) | -6.63
O=C(c1cc(F)ccc1F)C1CCCN(C(=O)c2cccs2)C1 (stereo not shown) | 22.5
O=C(O)c1cc2n(n1)C(C(F)(F)F)CC(c1ccccc1)N2 (stereo not shown) | 16
CCCC(=O)Nc1ccc2nc(SCC(=O)N3CCCC3)sc2c1 | 2.52
Cc1cccc(CSc2ccc(S(=O)(=O)N3CCCC3)cn2)c1 | 5.24
CC(NC(=O)C1CCC(CNC(=O)[C@@H]2Cc3ccccc3CN2)CC1)c1ccccc1 (stereo partly shown) | -4.23
O=P1(Nn2cnnc2)C=C(c2ccccc2)OC(c2ccccc2)=C1 | -20.8
O=C(Nc1cnccn1)c1ccncc1 | -5.96
CCOc1ccc(Nc2n[nH]c(=S)s2)cc1 | 14.8
C=C(C)COc1ccc(-c2nc(N)ncc2-c2ccc(OC)c(OC)c2)c(O)c1 | 14.5
CCn1c(Cc2ccccc2)nnc1SCC(=O)Nc1ccc2c(c1)OCO2 | 2.66
CCCCNC(=S)NNC(=O)c1c(Cl)c(C)nn1C | 25.6
COc1ccc(-c2cc(C(=O)OCc3ccccn3)c3ccccc3n2)cc1 | 24.3
COCC(=O)NCCc1nc(-c2ccccc2)cs1 | 4.61
CC(C)(CS(=O)(=O)[O-])NC(=O)CC[N+](C)(C)CCO | 10.5
CCNc1sc(C(=O)OCC)c(N)c1C#N | 6.96
COc1ccc(NC(=O)CS(=O)(=O)c2cn(CC(=O)N3CCOCC3)c3ccccc23)cc1OC | 15.5
Cc1[nH]c2ccccc2c1Cc1n[nH]c(=S)o1 | 16.7
